PMC4336329 (PLoS ONE, 2015)
Screen size: about 310,000 compounds; about 2,200 (0.71%) showed an effect of 50% or more. Effects have a minus sign here. This is one part of the list.

Each compound was assayed against human ether-à-go-go-related gene (hERG) potassium channel (human, UniProt Q12809) (assay: primary screen, population patch clamp on CHO cells stably expressing hERG).
Sequence of human ether-à-go-go-related gene (hERG) potassium channel (Q12809 whole entry, looked up): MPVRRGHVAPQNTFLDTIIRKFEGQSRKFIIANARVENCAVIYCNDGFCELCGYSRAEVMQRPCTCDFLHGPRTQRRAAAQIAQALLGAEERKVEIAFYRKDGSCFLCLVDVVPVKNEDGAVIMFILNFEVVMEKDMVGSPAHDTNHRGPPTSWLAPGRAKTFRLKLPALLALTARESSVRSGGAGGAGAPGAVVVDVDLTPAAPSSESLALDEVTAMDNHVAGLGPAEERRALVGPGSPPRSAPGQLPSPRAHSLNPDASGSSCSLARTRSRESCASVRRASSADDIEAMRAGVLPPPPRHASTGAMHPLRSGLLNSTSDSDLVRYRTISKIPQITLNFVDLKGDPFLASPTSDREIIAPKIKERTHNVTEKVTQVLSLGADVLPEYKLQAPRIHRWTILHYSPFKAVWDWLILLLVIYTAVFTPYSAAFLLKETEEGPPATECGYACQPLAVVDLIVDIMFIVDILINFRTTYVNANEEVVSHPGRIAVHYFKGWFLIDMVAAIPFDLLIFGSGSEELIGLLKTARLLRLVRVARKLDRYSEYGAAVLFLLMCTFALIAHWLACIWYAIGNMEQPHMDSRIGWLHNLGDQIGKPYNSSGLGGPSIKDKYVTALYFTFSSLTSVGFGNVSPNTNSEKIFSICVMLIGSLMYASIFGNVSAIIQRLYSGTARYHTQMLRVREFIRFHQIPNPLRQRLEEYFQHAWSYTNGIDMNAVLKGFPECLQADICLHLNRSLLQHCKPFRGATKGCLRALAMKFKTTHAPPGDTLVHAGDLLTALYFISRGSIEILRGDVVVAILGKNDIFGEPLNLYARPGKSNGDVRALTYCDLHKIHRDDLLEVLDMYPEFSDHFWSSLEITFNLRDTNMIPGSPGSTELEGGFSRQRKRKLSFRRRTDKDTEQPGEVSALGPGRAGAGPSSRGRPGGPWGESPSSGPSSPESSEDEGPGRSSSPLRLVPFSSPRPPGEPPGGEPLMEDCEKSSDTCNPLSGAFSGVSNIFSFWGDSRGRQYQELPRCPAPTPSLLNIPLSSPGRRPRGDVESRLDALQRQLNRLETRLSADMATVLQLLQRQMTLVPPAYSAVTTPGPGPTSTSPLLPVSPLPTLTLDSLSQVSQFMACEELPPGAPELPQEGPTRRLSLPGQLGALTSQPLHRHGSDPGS

Row | Compound | hERG current change (%, negative = inhibition) at 1uM [%]
1 | CCn1c(SCC(=O)NC2=NCCS2)nnc1C(C)NC(=O)c1ccccc1F (stereo not shown) | 13.7
2 | COc1ccc(C(=O)N[C@H](C(=O)Nc2sccc2C(N)=O)C(C)C)cc1 | 11.7
3 | CCC(c1nnc(SCC(=O)Nc2nnc(-c3ccccc3)o2)n1Cc1ccccc1)N(C)C (stereo not shown) | 11.2
4 | CN(C)S(=O)(=O)N1CCN(c2ccc([N+](=O)[O-])c(NC3CC3)c2)CC1 | 10.4
5 | CC(=O)c1ccc(O)c(CC=C(C)C)c1O | 6.25
6 | CC(=O)c1ccc(NC(=O)C2CCCN(C(=O)c3ccc(Cl)cc3)C2)cc1 (stereo not shown) | 2.59
7 | COc1cc(/C=N/NC(=O)c2ccc(CSc3nc4ccccc4[nH]3)cc2)cc(OC)c1OC | 1.08
8 | CCOC(=O)c1cnc(-n2nc(C)cc2C)nc1Oc1ccc(C(=O)OC)cc1 | 13.1
9 | COc1ccc(F)cc1C(=O)C1CCCN(Cc2cccn2-c2ccccn2)C1 (stereo not shown) | -89.9
10 | CCCNC(=O)C1(CC2CC(c3ccccc3)=NO2)CCN(C(=O)C2(C)CC2)CC1 (stereo not shown) | 10.3
11 | Cc1cc(C)nc(SCC(=O)N2CCOCC2)n1 | 4.62
12 | COc1ccc(-c2[nH]ncc2CNCC(C)(C)N2CCOCC2)cc1F | 12.4
13 | O=C1C2CC=CCC2C(=O)N1Cc1ccccc1Cl (stereo not shown) | 13.3
14 | Cc1ccc(S(=O)(=O)N2CCC(C(=O)Nc3nnc(-c4ccco4)s3)CC2)cc1 | 13.6
15 | O=C(NCCc1ccccn1)c1cccnc1Oc1ccc(Cl)cc1 | 7.09
16 | COc1ccc2nc(N)sc2c1 | 14.2
17 | CC1=C(C#N)S(=O)(=O)C(C#N)C(c2ccccc2)C1 (stereo not shown) | 16.1
18 | COc1ccc(C2c3c(ccc4ccccc34)Oc3ncn4nc(Cc5ccc(OC)c(OC)c5)nc4c32)cc1 (stereo not shown) | 2.05
19 | N#CC1=C(N)Oc2n[nH]c(CSc3ccccc3)c2C12C(=O)Nc1ccccc12 (stereo not shown) | 8.6
20 | N#CCCn1cc(C(=O)NCc2ccccc2)c(-c2ccc3c(c2)OCCO3)n1 | 8.32
21 | Cc1cccc(OCc2nnc(SCC(=O)Nc3nccs3)o2)c1 | 6.72
22 | COc1ccc2cc3cc(C(=O)Nc4ccc5c(c4)OCO5)oc3nc2c1 | 3.59

Row | Compound | hERG current change (%, negative = inhibition) at 1uM [%]
23 | CCN(CC)C(=O)CN1CCC(c2nc3cc(C)c(C)cc3[nH]2)CC1 | 11.1
24 | CCn1c(C)nc2cc(N)ccc21.Cl | 7.53
25 | CCOC(=O)C1C(=O)OC(C)(C)C1C(C)C(=O)c1ccccc1 (stereo not shown) | 23.5
26 | O=C(COC(=O)c1cn(-c2ccccc2)nc1-c1ccccc1)Nc1ncc(Cl)cc1Cl | 3.57
27 | CC(=O)NC1C(=O)N=C(SCc2ccccc2)NC1=O (stereo not shown) | 9.17
28 | COc1ccc(C2C(C(C)=O)=C(O)C(=O)N2Cc2ccccc2)c(OC)c1 (stereo not shown) | 11.2
29 | O=C(O)CCc1nn2c3ccccc3n(CC(=O)c3ccccc3)c2nc1=O | 0.268
30 | O=C(OCCOc1cccc(Cl)c1)C1CCN(S(=O)(=O)c2ccccc2)CC1 | -4.12
31 | C[C@H](c1ccccc1)n1nnc(COCc2ccccc2)c1C#CCOCc1ccccc1 | 10.8
32 | O=C1CC[C@@H](C(=O)O)N1 | -3.71
33 | CN(C)S(=O)(=O)c1ccc(S(=O)(=O)N(Cc2ccco2)Cc2ccccc2Cl)cc1 | 4.17
34 | S=c1[nH]nc(CCc2ccccc2)n1Cc1ccccc1 | 7.67
35 | COCCCNc1nc2ccccc2nc1NS(=O)(=O)c1ccccc1 | 19.6
36 | Cc1c(C)n(Cc2ccccc2)c2ncnc(NCCO)c12 | 10.6
37 | O=C(CCNC(=O)c1ccccc1)NCCCc1ccccc1 | 10.6
38 | O=C(CN(C(=O)CNS(=O)(=O)c1ccccc1)C1CCCC1)NCC1CCCO1 (stereo not shown) | 4.8
39 | CCCCC(NC(=O)c1ccc(C#N)cc1)C(=O)NCCC (stereo not shown) | -1.36
40 | O=C(OCC(=O)N1CCN(c2ccccc2)CC1)c1cccc([N+](=O)[O-])c1 | -3
41 | O=C(O)Cn1nc(-c2ccccc2)ccc1=O | 9.53
42 | CCOC(=O)CSc1nnc(CNC(=O)c2cc(OCC)c(OCC)c(OCC)c2)n1C | 0.985
43 | COc1ccc(C(=O)Nc2ccc(O)c3ccccc23)cc1 | 11.8
